Laboratory results from PubChem BioAssay AID760 (NMMLSC, 2007).
Among all 190,000 compounds or so, about 360 (0.19%) were called active. Inconclusive results, whose numbers are uncertain, are shown with a selection of clear calls.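 Rule for the calls: active = GTP binding activity at least 20 points away from 100%, either lowered or raised; inconclusive = signal likely due to the compound's own green fluorescence; inactive = the rest.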

What follows are molecules tested against Ras-related protein Rab-2A (Canis lupus familiaris) (UniProt P61105) (assay: Rab2 wt fluorescent GTP binding changes, either direction – biochemical, dog, bead-based flow cytometry, multiplex, primary screen (AID 760;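 note: 0% = beads with excess unlabeled GTP and 100% = no-compound control corrected for plate trend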)). Conditions: GST-Rab2 wt beads, Bodipy-GTP binding, at 10 µM.

| Compound | GTP binding activity |
| --- | --- |
| CNC(=S)NNC(=O)Cc1ccc(O)cc1 | inconclusive: 104% |
| N#CCCN1CCN(C(=S)c2ccc(-c3cc(Cl)ccc3Cl)o2)CC1 | inconclusive: 91% |
| Cc1cc(N2CCCC2=O)c(N)cc1N | inconclusive: 90% |
| O=c1c2ccccc2nc(SCc2nc(-c3ccccc3)no2)n1-c1ccc(F)cc1 | inconclusive: 100% |
| O=C(NCc1ccccn1)C(=O)C1C(=O)Nc2ccccc21 (configuration not stated) | inactive: 98% |
| Cc1nc(NC(=O)CSc2nnc(-c3ccc4c(c3)OCO4)o2)c(Cl)cc1Cl | inconclusive: 103% |
| CCOCc1[nH]c(=S)[nH]c(=O)c1Cc1ccc(OC(C)C)cc1 | inconclusive: 91% |
| CC(C)c1ccc(CN2CC(C(=O)Nc3ccccc3)CC2=O)cc1 (configuration not stated) | inconclusive: 89% |
| O=C(Cn1nnc2c(cnn2-c2ccccc2)c1=O)NCc1cccs1 | inconclusive: 91% |
| Cc1ccc(NC(=O)CO/N=C/c2ccc(N(C)C)cc2)cc1 | inconclusive: 114% |
| O=C(NCCc1c[nH]c2ccccc12)OCCSS(=O)(=O)O | inactive: 93% |
| Cc1ccc(C(=O)Nc2cccc([N+](=O)[O-])c2)cc1S(=O)(=O)Nc1ccc(C(=O)O)cc1 | inconclusive: 86% |
| NC(=O)CSc1nnc(SCc2ccc(F)cc2)s1 | inactive: 96% |
| O=C(Nc1ccccc1F)Nc1ccccc1OC(F)F | inactive: 100% |
| O=C(CSc1nc(O)c(Cc2ccccc2)c(=O)[nH]1)Nc1nc2c(s1)CCCC2 | inconclusive: 91% |
| Oc1ccccc1-c1n[nH]c(=S)n1Cc1ccco1 | inactive: 100% |
| O=c1/c(=C/c2ccc(CNS(=O)(=O)c3ccccc3)o2)sc2n1CCN=2 | active: 74% |
| CCn1c2ccccc2c2cc(NC(=S)N3CCOCC3)ccc21 | inconclusive: 110% |
| Cc1cc(N2CCOCC2)nc2ccc(NC(=O)CCC(=O)N3CCCC(C)C3)cc12 (configuration not stated) | inconclusive: 102% |
| O=C(C1=C[C@H](C2CC2)C[C@H](OCc2ccc(CO)cc2)O1)N1CCOCC1 | inactive: 98% |
| O=C(CSc1cccc[n+]1[O-])Nc1cccc(Oc2ccccc2)c1 | inactive: 94% |
| Cc1ccc(F)cc1CNC(=O)c1cc(COc2ccc3ncccc3c2)on1 | inconclusive: 95% |
| Nc1c(C(=O)O)cnn1-c1ccccc1 | inactive: 96% |
| COc1c(Br)cc2c(C)c(C(=O)O)oc2c1Br | inconclusive: 91% |

| Compound | GTP binding activity |
| --- | --- |
| OC(CON=C1c2ccccc2-c2ccccc21)CN1CCNCC1 (configuration not stated) | inconclusive: 97% |
| CSCC[C@@H](C(=O)NCc1cccs1)N1Cc2ccccc2C1=O | inconclusive: 107% |
| Cc1ccccc1NC(=O)OCc1cccnc1Sc1ccc(Cl)cc1 | inconclusive: 90% |
| CCC(=O)N1CCN(c2ccc(NC(=S)NC(=O)c3ccc(OC)c([N+](=O)[O-])c3)cc2)CC1 | inconclusive: 97% |
| Cc1ccccc1C(=O)Nc1cccc(C(=O)N/N=C/c2cc(Cl)cc([N+](=O)[O-])c2O)c1 | active: 77% |
| CC(=O)c1c(C)[nH]c(C(=O)N2CCc3ccccc3C2)c1C | inconclusive: 114% |
| COc1ccc(-c2nnn(CC(=O)NCc3ccc4c(c3)OCO4)n2)cc1OC | inconclusive: 92% |
| CCCC/C(O)=C1\C(=O)CC(C)(C)CC1=NCCCCCC(=O)O | inconclusive: 91% |
| CCOc1ccc(NC(=S)N(CC)Cc2ccccc2)cc1 | inactive: 94% |
| COc1ccc(/C=C2\N=C(SC)SC2=O)cc1OC | active: 77% |
| COc1cc(C(=O)OCC(=O)Nc2cc(C)on2)cc(OC)c1OC | inconclusive: 103% |
| CC(=O)N1CCc2cc(S(=O)(=O)NC(C(=O)NCc3ccccc3)C(C)C)ccc21 (configuration not stated) | inconclusive: 104% |
| Cc1ccc(CN(Cc2ccccc2)C(=S)Nc2ccccc2C)o1 | inactive: 101% |
| O=c1c2c3c(sc2n(CCN2CCOCC2)c(=O)n1Cc1ccco1)CCCCC3 | inconclusive: 102% |
| O=c1cc(CSc2nnnn2-c2ccccc2)nc2sccn12 | inconclusive: 90% |
| CCCC(=O)n1nc(-c2cccnc2)nc1NCc1ccccc1 | inactive: 96% |
| Cc1ccccc1OCC(=O)N1N=C(c2cccnc2)CC1(O)C(F)(F)F (configuration not stated) | inconclusive: 99% |
| CC(C)C(C(=O)O)N1C(=O)/C(=C/c2cccn2C)SC1=S (configuration not stated) | inconclusive: 92% |
| CC1=C2C(=O)OC(c3ccoc3)C2(C)CCC1 (configuration not stated) | inconclusive: 101% |
| Cc1coc(=N)n1CC(=O)c1ccc(Cl)cc1 | inactive: 98% |
| Cc1ccc(C=NCc2ccncc2)c(O)c1 | inconclusive: 104% |
| Cn1c(SCC(=O)c2ccccc2)nnc1-c1ccco1 | inactive: 98% |
| CCOc1ccc2oc(-c3ccccc3)c(C(=O)N3CCN(C)CC3)c2c1 | inconclusive: 104% |
